According to the RNAGym collection of RNA variant scans (doi:10.7554/elife.90254):
The source gives no read counts; variants with many changes may rest on few reads.

B1: LINE1-full (parent)
chain: UACGUAGGUGGUUUUCCCCUGAUAGUGCUAAGGGGGCCUGGAAGUUUGGACUGGGCAGAGCUCAACACAGCGUGGCAAAGUGGCUGUGGCUAGACUGCCUCUCUGGAUUCCUCGUCACUCAGCAGGGCAUCUCUGAGAGAAAUGCC

Variants of: B1
Assay: self-cleavage, relative activity (ratio to wild type); higher = more cleavage; in vitro, sequencing; the parent is a self-cleaving ribozyme

Row | Variant | self-cleavage
1 | A92U A107G A142G | 0.68
2 | U108C A136C G139A | 1.36
3 | U108C C116A A141G | 1.17
4 | C113U A121G U130A | 1.65
5 | U100C U115A U130C | 1.53
6 | U102C A124U A129G | 1.76
7 | A94G A136C A141G | 0
8 | C103A A129U U130C | 0.92
9 | A94G U119C U143G | 0.63
10 | U96C U119A A124U | 0.12
11 | C95A U119A U134A | 0.05
12 | G93A U115A A117U A142G | 0.04
13 | C103U A117G G122A | 1.62
14 | A94G A140U A142G | 0.09
15 | G105A A129G A142G | 1.88
16 | U112C G139U A141G | 1.23
17 | U96A U119C U130C | 0.21
18 | A117C G122C U130C | 1.77
19 | A107G U134C U143C | 1.31
20 | U96A U115A A121G | 0.08
21 | U96C C111U U143C | 0.15
22 | A107G U112A U143C | 1.97

Row | Variant | self-cleavage
23 | A129G U130A A141G | 0.95
24 | U115C G122A A129G A140U | 1.65
25 | A94G U112G A138G | 0
26 | A117G U119C U130C | 0.61
27 | U102C U104C U109C | 1.23
28 | G93A U100A U104A | 0.08
29 | U102C U115A A136G | 1.27
30 | U96C U109C U115A U119C | 0
31 | A121U U130C A138G | 2.23
32 | U104A A140G A141G | 1.29
33 | A92G U132C A136G | 0.32
34 | A92C G135A A140U | 0
35 | U115C U130A U143C | 2.48
36 | U96G U119C C133A | 0.06
37 | U134C A140G U143C | 0.65
38 | A92G G97A A121G | 0.08
39 | G114U A121G A129U | 1.13
40 | U96C U104C A124G | 0
41 | U100C U134A A140U | 1.7
42 | U119A U132A A136G | 1.57
43 | A94G U112C U143A | 0.25
44 | A140U A142G U143C | 2.04

Row | Variant | self-cleavage
45 | A94G A107U U130A | 0.26
46 | U109C U112C U130C | 0
47 | C103U A117G A129G | 1.68
48 | G93U G97A C101U | 0.06
49 | U100C A107G G125U U134G | 2.34
50 | U104C U109A A124U A141G | 1.78
51 | U102A A107G A142G U143C | 0.56
52 | A117U A121U A136U | 1.09
53 | U115C A121U A129G | 1.53
54 | A107U A124U A141G | 1.49
55 | U104A A138U A140G | 1.73
56 | U108C U115G U132C | 0.4
57 | G126U A129G A138G | 1.81
58 | U104C C118G A141G | 1.36
59 | U115C A140G A141G | 0.95
60 | U108A U130C C133U | 2
61 | U96C A140U A142C | 0.04
62 | G93U U100C A129U | 0.01
63 | U104C U115C A138U | 0
64 | U96A U104C U132C | 0.08
65 | U102C U112C A142G | 1.15
66 | U115C U134A A138U | 1.44
